The values that follow come from patent US20260216242A1, “ALPP-SPECIFIC VARIANT ANTIGEN BINDING MOLECULES” (ALMAC DISCOVERY LIMITED, priority 2022, published 2026).

One assay has as its target hALPL (Homo sapiens, UniProt P05186). The assay is described as follows: BLI binding to human ALPL. The note with it: VHH-hFc. Here is the method: (§1) Binding kinetics were determined using the Biolayer Interferometry (BLI) Octet K2 system (Sartorius). Human ALPP, ALPPL2, ALPL (each fused with a cysteine stabilised leucine zipper) and ALPI, (SEQ ID NO: 265, SEQ ID NO: 266 and SEQ ID NO: 267 and SEQ ID NO: 264 respectively) were immobilised in sodium acetate pH5 buffer to AR2G sensors using amine coupling. All assays were conducted in PBS with a plate temperature of 25° C. Ka (M^−1s^−1), Kd (s^−1) and KD (nM) values were determined using Octet Data Analysis High Throughput software (ForteBio) for Biolayer Interferometry.
(§2) Binding kinetics were determined using the Biolayer Interferometry (BLI) Octet K2 or R4 system (Sartorius). Human ALPP, ALPPL2 and ALPL all fused with a disulphide stabilised leucine zipper (SEQ ID NO: 265, SEQ ID NO: 266, and SEQ ID NO: 267) and ALPI His (SEQ ID NO: 264) were used in BLI experiments. For KD apparent measurements, the ALPP proteins were immobilised in sodium acetate pH5 buffer to AR2G sensors using amine coupling. To measure 1:1 interactions, AHC biosensors were used to immobilise Fc-fused proteins. All assays were conducted in HBS-EP with a plate temperature of 25° C. Ka (M^−1s^−1), Kd (s^−1) and KD (nM) values were determined using Octet Data Analysis High Throughput software (Sartorius) for Biolayer Interferometry.
as §2, with “NO:264)” for “NO: 264)”
(In general: In BLI a coated tip is dipped into the sample, and binding shifts an interference pattern.)

A further assay concerns rhesus monkey ALPP. In words: BLI cross-species reactivity, rhesus monkey ALPP. Particulars: VHH-hFc, KD apparent format. The assay is classed as binding. Here is the method:
as §2
(§3) To assess cross-species reactivity of the ALPP/ALPPL2 targeting VHH-hFc fusions, BLI was conducted using mouse ALPPL2 (NCBI #NP_031459), rhesus monkey ALPP (NCBI #XP_028687061) and cynomolgus monkey ALPP (NCBI #XP_045223825). Each of these were expressed as cysteine-stabilised leucine zipper fusions (SEQ ID NO: 271, SEQ ID NO: 272 and SEQ ID NO: 273). BLI was conducted as described above.

The target in the next assay is T1, mouse ALPPL2 (Mus musculus, UniProt P24823).
T1 construct: made in house
In words: BLI cross-species reactivity, mouse ALPPL2. It counts as binding. The note with it: VHH-hFc, KD apparent. Here is the method:
as §2, §3

The next assay concerns the target T2, hALPI (Homo sapiens, UniProt P09923).
T2 sequence (P09923 with tags, fused parts or gaps): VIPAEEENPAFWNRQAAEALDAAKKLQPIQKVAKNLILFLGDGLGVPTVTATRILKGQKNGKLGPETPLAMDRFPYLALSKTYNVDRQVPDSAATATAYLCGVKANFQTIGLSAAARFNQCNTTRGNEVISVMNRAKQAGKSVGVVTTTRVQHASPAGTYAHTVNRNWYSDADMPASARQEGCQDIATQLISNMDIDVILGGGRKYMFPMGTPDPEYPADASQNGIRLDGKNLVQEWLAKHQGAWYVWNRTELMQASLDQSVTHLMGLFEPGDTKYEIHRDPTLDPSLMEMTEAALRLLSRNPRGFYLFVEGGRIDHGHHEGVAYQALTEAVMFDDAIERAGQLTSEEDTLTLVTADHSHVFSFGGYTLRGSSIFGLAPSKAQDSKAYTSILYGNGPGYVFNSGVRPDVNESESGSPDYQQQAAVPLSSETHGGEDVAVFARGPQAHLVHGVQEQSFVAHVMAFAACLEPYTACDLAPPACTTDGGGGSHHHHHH
In words: BLI binding to ALPI His. Particulars: VHH-hFc. As to the method: as §1, §2
as §2, with “NO:264)” for “NO: 264)”

In the next assay the target is Human ALPPL2 (Homo sapiens, UniProt P10696). In words: BLI binding kinetics, human ALPPL2 immobilised on AR2G sensors (KD / KD apparent). Particulars: VHH-hFc, KD apparent format. Here is the method:
as §1, §2
as §2, with “NO:264)” for “NO: 264)”

Another assay addresses ALPP (Homo sapiens, UniProt P05187). The assay is described as follows: BLI binding kinetics, human ALPP immobilised on AR2G sensors (KD / KD apparent). The note with it: VHH-hFc, KD apparent format. Here is the method: as §1, §2
as §2, with “NO:264)” for “NO: 264)”

In assay [1] the target is T3, ALPI expressed on the surface of CHO cells (CHO-ALPI) (Homo sapiens, UniProt P09923).
T3 construct: expressed in transfected cells
T3 sequence (P09923 20-503 limits assumed): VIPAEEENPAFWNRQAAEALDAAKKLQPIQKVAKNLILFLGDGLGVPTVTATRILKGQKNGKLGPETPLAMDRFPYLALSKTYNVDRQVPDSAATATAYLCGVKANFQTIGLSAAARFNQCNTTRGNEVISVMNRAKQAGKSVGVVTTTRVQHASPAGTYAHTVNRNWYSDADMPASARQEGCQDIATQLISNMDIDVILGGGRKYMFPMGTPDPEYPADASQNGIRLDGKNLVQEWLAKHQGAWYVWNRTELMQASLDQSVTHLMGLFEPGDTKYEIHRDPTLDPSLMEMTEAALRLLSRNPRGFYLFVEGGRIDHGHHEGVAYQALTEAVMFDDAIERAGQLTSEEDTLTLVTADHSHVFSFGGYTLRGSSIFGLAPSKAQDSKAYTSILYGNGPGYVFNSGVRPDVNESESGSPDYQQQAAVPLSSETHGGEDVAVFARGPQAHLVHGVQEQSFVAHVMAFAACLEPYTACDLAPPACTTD
In words: Cell-surface binding by flow cytometry, CHO-ALPI. The note with it: VHH-hFc proteins, flow cytometry, up to 350 nM. Here is the method:
(§4) C-terminal His tagged VHH proteins were assessed for ALPP, ALPPL2, ALPI and ALPL cell-surface binding by flow cytometry. Binders encompassing different epitope bins were screened on CHO cells stably expressing ALPP, ALPPL2, ALPI or ALPL. High levels of cell-surface proteins expression were confirmed for each of the cell-lines by flow cytometry.
(§5) Cell surface binding of test agents to hALPP isoforms was characterized in four CHO-ALPP isoform stably transfected cell lines (CHO-ALPP, CHO-ALPPL2, CHO-ALPI and CHO-ALPL) and the resulting KDapp values determined. Adherent cells were detached from tissue culture flasks by incubating with 0.1% EDTA/PBS solution at 37° C. for ~10 minutes or until cells detached easily. Cells were re-suspended in ice-cold PBS/2% FCS in 15 ml tubes and centrifuged at 1700 rpm for 5 mins at 4° C. Supernatant was removed and the cell pellet re-suspended in PBS/2% FCS. A cell count was performed using a Chemometec Nucleocounter NC-202 and 2.5×10^5 cells were aliquoted per test sample into a 96 well plate. Cells were incubated with 100 μl of test agents at a range of concentrations, plus controls for 1 hr on ice. The sample plate was centrifuged at 1700 rpm for 5 mins at 4° C. The supernatant was removed, and a wash performed by re-suspending the cell pellets in 0.25 mL of ice-cold PBS/2% FCS using a multichannel pipette. Samples were again centrifuged at 1700 rpm for 5 min at 4° C. Supernatant was removed and two further washes performed as described. After the final wash and centrifugation step, excess liquid was removed by blotting the plate on tissue paper. Binding of VHH (His6 tagged) agents was determined by adding 100 μl of anti-x6His tag Ab (Abcam) per cell pellet sample as appropriate and incubating on ice for 30 mins. Wash steps were performed as described previously. Fitc-anti-mouse antibody (ThermoFisher) was used to detect binding of the VHH (His6 tagged) agents by incubating with the appropriate samples for 30 min on ice in the dark. Wash steps were performed as described previously. All cell pellets were finally re-suspended in […] of ice-cold PBS/2% FCS and left on ice in the dark prior to analysis on a Merck-Millipore Guava EasyCyte HT or Thermo Fisher Attune N×T flow cytometer.
(§6) VHH-hFc proteins were assessed for human ALPP, ALPPL2, ALPI and ALPL cell-surface binding by flow cytometry. Binders were screened on CHO cells stably expressing human ALPP, ALPPL2, ALPI or ALPL.
(§7) Cell surface binding of test agents to hALPP isoforms was characterized in four CHO-ALPP isoform transfectant cell lines (CHO-ALPP, CHO-ALPPL2, CHO-ALPI and CHO-ALPL) and the resulting KDapp values determined. Adherent cells were detached from tissue culture flasks by incubating with 0.1% EDTA/PBS solution at 37° C. for ~10 minutes or until cells detached easily. Cells were re-suspended in ice-cold PBS/2% FCS in 15 ml tubes and centrifuged at 1700 rpm for 5 mins at 4° C. Supernatant was removed and the cell pellet re-suspended in PBS/2% FCS. A cell count was performed using a Chemometec Nucleocounter NC-202 and 2.5×10^5 cells were aliquoted per test sample into a 96 well plate. Cells were incubated with 100 μl of test agents at a range of concentrations, plus controls for 1 hr on ice. The sample plate was centrifuged at 1700 rpm for 5 mins at 4° C. The supernatant was removed, and a wash performed by re-suspending the cell pellets in 0.25 mL of ice-cold PBS/2% FCS using a multichannel pipette. Samples were again centrifuged at 1700 rpm for 5 min at 4° C. Supernatant was removed and two further washes performed as described. After the final wash and centrifugation step, excess liquid was removed by blotting the plate on tissue paper. Binding of VHH-hFc agents was determined by adding 100 μl of Fitc-anti-human Ab (ThermoFisher) and incubating for 30 mins on ice in the dark. Wash steps were performed as described previously. […]

In assay [2] the target is T4, ALPL expressed on the surface of CHO cells (CHO-ALPL) (Homo sapiens, UniProt P05186).
T4 construct: expressed in transfected cells
T4 sequence (P05186 18-501 limits assumed): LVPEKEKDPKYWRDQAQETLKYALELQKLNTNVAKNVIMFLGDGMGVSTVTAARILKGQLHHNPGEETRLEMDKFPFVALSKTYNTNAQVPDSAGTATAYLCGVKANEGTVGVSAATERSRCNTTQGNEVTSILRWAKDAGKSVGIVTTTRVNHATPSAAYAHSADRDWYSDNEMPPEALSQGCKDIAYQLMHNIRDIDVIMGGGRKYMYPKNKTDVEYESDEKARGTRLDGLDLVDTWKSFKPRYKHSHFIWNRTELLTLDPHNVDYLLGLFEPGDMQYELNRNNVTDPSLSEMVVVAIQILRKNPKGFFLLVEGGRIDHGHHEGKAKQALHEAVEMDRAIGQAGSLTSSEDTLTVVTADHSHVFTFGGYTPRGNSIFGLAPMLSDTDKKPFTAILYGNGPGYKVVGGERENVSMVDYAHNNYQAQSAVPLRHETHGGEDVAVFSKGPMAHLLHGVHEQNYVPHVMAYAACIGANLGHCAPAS
In words: Cell-surface binding by flow cytometry, CHO-ALPL. The note with it: VHH-hFc proteins. Here is the method:
as §4, §5, §6, §7

Chain of UniProt P05187 (P05187 with tags, fused parts or gaps): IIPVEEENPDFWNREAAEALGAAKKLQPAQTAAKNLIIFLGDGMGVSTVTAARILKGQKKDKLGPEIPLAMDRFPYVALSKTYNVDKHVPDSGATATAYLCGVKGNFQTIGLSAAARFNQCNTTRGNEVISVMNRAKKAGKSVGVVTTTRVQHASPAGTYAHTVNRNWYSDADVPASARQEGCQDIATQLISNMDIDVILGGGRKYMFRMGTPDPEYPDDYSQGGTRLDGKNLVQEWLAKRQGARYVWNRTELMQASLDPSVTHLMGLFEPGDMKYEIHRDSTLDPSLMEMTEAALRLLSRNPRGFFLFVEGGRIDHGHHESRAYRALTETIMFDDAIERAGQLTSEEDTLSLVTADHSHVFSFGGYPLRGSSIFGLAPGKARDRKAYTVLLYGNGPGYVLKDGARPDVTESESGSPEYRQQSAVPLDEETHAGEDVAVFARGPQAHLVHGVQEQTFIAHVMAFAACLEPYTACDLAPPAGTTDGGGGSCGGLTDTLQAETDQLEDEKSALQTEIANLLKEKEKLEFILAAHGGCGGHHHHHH
Chain of hALPL (P05186 with tags, fused parts or gaps): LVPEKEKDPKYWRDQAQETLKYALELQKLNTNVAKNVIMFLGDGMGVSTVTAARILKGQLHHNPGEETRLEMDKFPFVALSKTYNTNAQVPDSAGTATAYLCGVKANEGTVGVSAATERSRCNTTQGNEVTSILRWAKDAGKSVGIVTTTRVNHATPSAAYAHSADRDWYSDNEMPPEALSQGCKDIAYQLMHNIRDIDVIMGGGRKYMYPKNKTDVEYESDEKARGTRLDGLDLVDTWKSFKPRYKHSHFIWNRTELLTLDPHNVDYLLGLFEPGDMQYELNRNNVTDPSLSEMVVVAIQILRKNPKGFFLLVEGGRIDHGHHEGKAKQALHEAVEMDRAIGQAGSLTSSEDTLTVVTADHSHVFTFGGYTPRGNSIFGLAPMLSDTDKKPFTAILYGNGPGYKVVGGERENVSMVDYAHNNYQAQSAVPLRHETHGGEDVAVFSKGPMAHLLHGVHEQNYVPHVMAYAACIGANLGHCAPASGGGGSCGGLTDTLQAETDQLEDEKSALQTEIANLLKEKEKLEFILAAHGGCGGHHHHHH
T1 sequence (P24823 with tags, fused parts or gaps): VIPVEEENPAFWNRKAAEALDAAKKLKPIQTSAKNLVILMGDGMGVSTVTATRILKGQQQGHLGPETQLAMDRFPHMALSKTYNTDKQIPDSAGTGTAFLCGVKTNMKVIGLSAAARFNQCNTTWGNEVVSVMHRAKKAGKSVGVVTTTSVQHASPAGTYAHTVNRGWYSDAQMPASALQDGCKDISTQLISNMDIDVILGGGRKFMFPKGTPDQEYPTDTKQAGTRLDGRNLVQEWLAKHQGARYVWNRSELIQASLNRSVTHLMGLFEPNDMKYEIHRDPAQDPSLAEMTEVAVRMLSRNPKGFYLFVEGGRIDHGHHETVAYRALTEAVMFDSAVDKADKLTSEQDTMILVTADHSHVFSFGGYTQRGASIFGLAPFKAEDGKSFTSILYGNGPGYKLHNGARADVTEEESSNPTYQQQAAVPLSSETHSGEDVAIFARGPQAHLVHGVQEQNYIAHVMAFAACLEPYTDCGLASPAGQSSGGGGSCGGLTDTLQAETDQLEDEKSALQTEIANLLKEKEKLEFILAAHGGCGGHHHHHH
Chain of Human ALPPL2 (P10696 with tags, fused parts or gaps): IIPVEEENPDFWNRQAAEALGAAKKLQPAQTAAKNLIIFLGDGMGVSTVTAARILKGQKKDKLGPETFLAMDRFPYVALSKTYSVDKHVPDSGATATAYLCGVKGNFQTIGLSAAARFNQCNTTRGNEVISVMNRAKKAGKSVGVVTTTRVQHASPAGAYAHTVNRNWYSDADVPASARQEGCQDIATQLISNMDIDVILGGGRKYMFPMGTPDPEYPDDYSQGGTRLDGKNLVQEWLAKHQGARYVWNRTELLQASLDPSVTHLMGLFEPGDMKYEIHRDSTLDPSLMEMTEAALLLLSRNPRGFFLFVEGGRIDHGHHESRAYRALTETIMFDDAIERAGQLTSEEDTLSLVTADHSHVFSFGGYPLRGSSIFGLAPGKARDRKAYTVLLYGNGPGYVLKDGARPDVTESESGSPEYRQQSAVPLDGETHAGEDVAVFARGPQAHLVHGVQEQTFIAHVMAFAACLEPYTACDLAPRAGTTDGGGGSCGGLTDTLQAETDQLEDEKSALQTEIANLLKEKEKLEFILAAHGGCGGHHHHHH

B1: D04-hFc (S239C): D04 VHH fused via [G4S]3 linker to human IgG1 Fc with S239C (protein)
chain: QVQLVESGGGLVQPGGSLRLSCAASESTFSINVMGWYRQAPGKQRELVATITSGDITNYADSVKGRFTISRDNAENTVYLRTNSLKPEDTAVYYCNARGEYHSGNEYDYWGQGTQVTVSSGGGGSGGGGSGGGGS[human IgG1 Fc with changes not spelt out]
With B1, the hALPL entry in the assay with hALPL is given as “No binding”. Moreover, in the assay on rhesus monkey ALPP, the “rmALPP Ka” value turned out to be 672000 M⁻¹ s⁻¹ and the “rmALPP Kd” value was below 1e-07 s⁻¹. Moreover, in the assay with mouse ALPPL2, the “mALPPL2 KD” value is “No Binding”. Further, the hALPI entry with hALPI is recorded as “No binding”. For the same molecule, in the assay with Human ALPPL2, the “hALPPL2 Ka” value is 104000 M⁻¹ s⁻¹ and the “hALPPL2 Kd” value is 0.000239 s⁻¹. Moreover, in the assay with ALPP, the “hALPP Ka” value came out at 311000 M⁻¹ s⁻¹ and the “hALPP Kd” value was 0.00000665 s⁻¹.

B2: D10 (G4S)1 hFc (S239C): D10 VHH fused via [G4S]1 linker to human IgG1 Fc with S239C (SEQ ID NO: 103) (protein)
chain: QVQLVESGGGLVQPGGSLRLSCAASGSIFSVNTMGWYRQAPGKQRDLVAVATSGGTIHYADSVKGRFTISRDNAKNTVYLQMNSLKPEDTAVYYCNLVVPYGMIAGDHDYWGQGTKVTVSSGGGGS[human IgG1 Fc with changes not spelt out]
As for B2, the “KDapp CHO-ALPI” value in assay [1] is given as “No binding”. Moreover, the “KDapp CHO-ALPL” value in assay [2] is on record as “No binding”.

B3: F08-hFc (S239C): F08 VHH fused via [G4S]3 linker to human IgG1 Fc with S239C (protein)
chain: QVQLVESGGGSVQAGGSLRLSCAASGPSLSNYAMGWFRQAPGKEREFVAGISWGGGRTSYTDSVKGRFTISRDNAKNTVYLQMNNLKPEDTGVYYCAGRYGRGRNVEYEYDYWGQGTQVTVSSGGGGSGGGGSGGGGS[human IgG1 Fc with changes not spelt out]
In the case of B3, the hALPL entry with hALPL is “No binding”. Moreover, in the assay on rhesus monkey ALPP, the “rmALPP Ka” value was 297000 M⁻¹ s⁻¹ and the “rmALPP Kd” value was below 1e-07 s⁻¹. The “mALPPL2 KD” value with mouse ALPPL2 is on record as “No Binding”. The hALPI entry with hALPI is given as “Low level binding”. Moreover, in the assay with ALPP, the “hALPP Ka” value was 192000 M⁻¹ s⁻¹ and the “hALPP Kd” value was below 1e-07 s⁻¹.
